Measured values from PubChem BioAssay AID624170 (National Center for Advancing Translational Sciences (NCATS), 2012).
Screen size: about 410,000 compounds; about 850 (0.21%) were called active. This list was built around the results that the source calls inconclusive (neither active nor inactive); the mix of calls is not that of the screen. Calls come from the whole dose curve; as a rule, active = well fitted inhibition curve with a large enough effect; inconclusive = small, poorly fitted or top-dose-only effect, or another doubt; inactive = no such curve, though single readings can be large or run the other way. Potencies of inconclusive entries are left out as doubtful fits.

The molecules below were run against Glutaminase kidney isoform, mitochondrial (Homo sapiens) (UniProt O94925) (assay: qHTS for Inhibitors of Glutaminase (GLS)). Settings: GLS enzymatic activity, qHTS titration; series mostly up to 45.5 µM.
UniProt O94925, sequence (O94925 whole entry, looked up, canonical isoform): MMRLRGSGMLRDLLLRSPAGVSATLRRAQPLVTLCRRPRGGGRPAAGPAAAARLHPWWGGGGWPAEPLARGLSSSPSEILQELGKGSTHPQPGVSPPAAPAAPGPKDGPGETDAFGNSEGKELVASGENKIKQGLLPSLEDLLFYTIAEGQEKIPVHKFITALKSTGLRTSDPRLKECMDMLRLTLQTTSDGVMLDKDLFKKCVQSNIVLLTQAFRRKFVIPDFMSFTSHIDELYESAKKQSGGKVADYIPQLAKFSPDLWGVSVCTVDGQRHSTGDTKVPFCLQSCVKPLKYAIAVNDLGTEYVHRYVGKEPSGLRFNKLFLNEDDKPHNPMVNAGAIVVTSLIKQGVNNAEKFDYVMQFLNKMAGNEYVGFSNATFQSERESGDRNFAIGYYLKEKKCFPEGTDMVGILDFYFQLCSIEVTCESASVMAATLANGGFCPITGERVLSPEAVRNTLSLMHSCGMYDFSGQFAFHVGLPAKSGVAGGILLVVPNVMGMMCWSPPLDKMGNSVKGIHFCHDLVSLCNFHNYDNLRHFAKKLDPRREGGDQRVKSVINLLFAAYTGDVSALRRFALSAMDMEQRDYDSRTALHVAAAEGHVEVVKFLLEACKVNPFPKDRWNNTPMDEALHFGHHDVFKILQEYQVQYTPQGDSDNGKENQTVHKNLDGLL
How it was run: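 Read-out is an Amplex red fluorescence increase coupled through glutamate oxidase and HRP, measured before and after 30 min room-temperature incubation. hKGA is in 45 mM KH2PO4 (pH 8.2) with 0.02% Tween-20; glutamine added as 1mM solution.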
Potency is the fitted concentration of half-maximal effect; tags give direction and shape of the fitted curve.

Row | Structure (SMILES) | Potency
1 | C=CCNc1ncnc2c1cnn2-c1ccc(Cl)cc1 | inconclusive [inhibitor, single point]
2 | S=C(Nc1ccccc1)Nc1nc2ccccc2n1CCOc1ccc(Br)cc1 | inactive
3 | CCN(CC)C(=O)Cn1nnc(-c2ccc(C)o2)n1 | inactive
4 | O=C1CCCCc2cc(O)c(O)cc21 | inconclusive [inhibitor, single point]
5 | Cc1cc(NC(=S)N(CCCN2CCN(C)CC2)Cc2ccco2)ccc1Cl | inconclusive [inhibitor, single point]
6 | C/C(=N/Nc1ncc(Br)cn1)c1ccc(Br)cc1 | inconclusive [inhibitor, single point]
7 | COc1ccc(-c2csc(NNC3=NCCCCC3)n2)cc1 | inconclusive [inhibitor, single point]
8 | Cc1nonc1C(=O)N/N=C/c1ccc(O)c(O)c1 | inconclusive [inhibitor, single point]
9 | N#Cc1c(N2C(=O)c3ccc(C(=O)O)cc3C2=O)sc2c1CCCC2 | inconclusive [inhibitor, single point]
10 | CN1CCN(C2=C(Cl)C(=O)C(c3cnc(N4CCCCC4)s3)=C(Cl)C2=O)CC1 | inconclusive [inhibitor, single point]
11 | O=C(Nc1nnc(SCc2ccc(Cl)cc2)s1)c1ccco1 | inconclusive [inhibitor, single point]
12 | CCc1nc2ccc(C(=O)NCc3ccccc3OC)cn2c1N(CC)CCN(C)C | inactive
13 | CCN(CCNC(=O)C1CCN(S(C)(=O)=O)CC1)c1ccccc1 | inconclusive [inhibitor, single point]
14 | CCNC(=S)NN=C1c2ccccc2-c2ccccc21 | inconclusive [inhibitor, single point]
15 | C=CCn1c(-c2csc3ccccc23)n[nH]c1=S | inconclusive [inhibitor, partial curve, poor fit]
16 | CCOC(=O)C1CCCN(CCC(=O)Nc2ccc(C)c(C)c2)C1 (stereo not given) | inconclusive [inhibitor, single point]
17 | S=c1[nH]nc(-c2cc(-c3ccco3)[nH]n2)n1-c1ccccc1Cl | inconclusive [inhibitor, partial curve, poor fit]
18 | O=c1ccsn1Cc1ccccc1 | inconclusive [inhibitor, single point]
19 | CC(C)(C)NS(=O)(=O)c1ccc(NC(=O)NC2CCCCC2)cc1 | inconclusive [inhibitor, single point]
20 | CC(=O)c1ccc(NC(=O)C2CC(=O)N(Cc3ccccc3)C2)cc1 (stereo not given) | inconclusive [inhibitor, single point]
21 | O=C(CCCc1ccccc1)Nc1ccccc1[N+](=O)[O-] | inconclusive [inhibitor, single point]
22 | O=C1C=CC(=O)C(CNc2ccc(C(=O)OCc3ccccc3)cc2)=C1 | inconclusive [inhibitor, single point]
23 | Cc1ccc2nc(-c3ccc(NC(=O)CCN4C(=O)c5ccccc5C4=O)cc3)sc2c1 | inactive

Row | Structure (SMILES) | Potency
24 | Oc1ccc(Cl)cc1C1=NNC(c2cccs2)C1 (stereo not given) | inconclusive [inhibitor, single point]
25 | CCOc1ccc(-n2c(SCC(N)=O)nnc2-c2ccco2)cc1 | inconclusive [inhibitor, single point]
26 | Cc1cc(C(F)F)n2ncc(C(=O)NCc3ccccc3F)c2n1 | inconclusive [inhibitor, partial curve]
27 | CN1C(=O)Cc2cc(S(=O)(=O)CCC(=O)Nc3ccc(Cl)c(C(F)(F)F)c3)ccc21 | inconclusive [inhibitor, full curve, poor fit]
28 | O=C(NCc1ccco1)c1cc([N+](=O)[O-])ccc1Cl | inconclusive [inhibitor, single point]
29 | COc1cccc(C(=O)NC(=S)Nc2cccnc2)c1 | inactive
30 | Cc1ccc(NC(=O)c2cc(N3C(=O)C=CC3=O)ccc2N2CCOCC2)cc1 | inconclusive [inhibitor, single point]
31 | O=S(=O)(NCCC1=CCCCC1)c1cccc(S(=O)(=O)N2CCOCC2)c1 | inconclusive [inhibitor, single point]
32 | Nc1nonc1-n1nnc(C(=O)N/N=C/c2ccoc2)c1-c1ccccc1 | inactive
33 | Nc1n[nH]c(N)c1N=Nc1ccc(Cl)cc1 | inconclusive [inhibitor, single point]
34 | O=C1C=C(O)c2c(O)cc(O)c(O)c2C1=O | inconclusive [inhibitor, full curve]
35 | COc1cccc(N2[C@@H](CC(=O)O)c3ccc(/C=C/C(=O)O)cc3S2(=O)=O)c1 | inconclusive [inhibitor, single point]
36 | COCCCNC(=O)C1C2C=CC3(CN(Cc4ccc(C)cc4)C(=O)C13)O2 (stereo not given) | inactive
37 | Cc1ccc(C2Cc3cc(O)c(O)cc3CN2)cc1 (stereo not given) | inconclusive [inhibitor, full curve]
38 | COC(CNC(=O)CCc1c(C)nc2c(-c3ccc(F)cc3)c(C)nn2c1C)OC | inactive
39 | COc1cc(C2c3c(oc4ccccc4c3=O)C(=O)N2c2ccc(C)cn2)ccc1O (stereo not given) | inactive
40 | Cc1cc(/C=C\c2nc(O)c([N+](=O)[O-])c(=O)[nH]2)c(C)n1-c1ccccc1 | inactive
41 | CCNC(=S)N/N=C/c1cccc(OCc2c(F)cccc2Cl)c1 | inactive
42 | CCOC(=O)CSc1nc2ccccc2c(=O)n1CC1CCCC1 | inconclusive [inhibitor, single point]
43 | Cc1cccc(OCCCC(=O)N2CCCCCC2)c1C | inactive
44 | C[C@H](O)[C@@H]1CN2CCc3c([nH]c4ccccc34)[C@@H]2C[C@@H]1N(C)C(=O)Nc1cccc2ccccc12 | inconclusive [inhibitor, single point]
45 | O=C(O)c1ccc(N/N=C/c2ccc(-c3cccc(Cl)c3)o2)cc1 | inactive
